In this assay the target is T1, EGFR-Fc fusion protein (UniProt P00533 partial chain, limits assumed).
T1 construct: extracellular domain; also called Fc fusion protein of the extracellular region of EGFR; immobilized EGFR; not shown: Fc part
The experiment in a line: ELISA on immobilized receptor-Fc. For orientation: In an ELISA, binding on a coated surface is turned into a signal by an enzyme label.

The values below come from patent US20170327594A1 (UNIVERSIT T STUTTGART, published 2017).

B1: scFvEGFR-MHD2-scFvHER2 (bispecific antibody)
chain: DAAQPAMAEVQLVESGGGLVQPGGSLRLSCAASGFSLTNYGVHWVRQAPGKGLEWLGVIWSGGNTDYNTPFTSRFTISRDNSKNTLYLQMNSLRAEDTAVYYCARALTYYDYEFAYWGQGTTVTVSSGGGGSGGGGSGGGGSDIQLTQSPSFLSASVGDRVTITCRASQSIGTNIHWYQQKPGKAPKLLIKYASESISGVPSRFSGSGSGTEFTLTISSLQPEDFATYYCQQNNNWPTTFGAGTKLEIKRGSLGGSGGAELPPKVSVFVPPRDGFFGNPRKSKLICQATGFSPRQIQVSWLREGKQVGSGVTTDQVQAEAKESGPTTYKVTSTLTIKESDWLGQSMFTCRVDHRGLTFQQNASSMCVPDGGGSGGGTGSGG[about 120 residues not given here]GGGGSGGGGSGGGTG[about 100 residues not given here]RAAAHHHHHH
notes: Tetravalent, bispecific homodimer, His6; also called scFvA-MHD2-scFvB; bispecific MHD2 fusion protein
Turning to B1, the binding result is on record as “binds”.
